Some of the results follow.
Columns and labels:
[1] = system: HSkMC (human skeletal muscle cells); experiment: cytotoxicity call (relative viability < 0.9); settings: 10 µM
[2] = system: HepG2; experiment: cytotoxicity call (relative viability < 0.9); settings: 10 µM
[3] = system: S. aureus RN4220; experiment: growth inhibition call (relative growth <= 0.2); settings: 50 µM

C[C@@H]1CCCCO[C@@H](CN(C)S(=O)(=O)c2ccc(F)cc2)[C@@H](C)CN([C@@H](C)CO)C(=O)c2cc(NC(=O)NC3CCCCC3)ccc2O1
inactive: cytotoxicity call [1] | cytotoxicity call [2] | growth inhibition call [3]

C[C@@H]1CN([C@H](C)CO)C(=O)Cc2cc(NC(=O)Cc3cn(C)c4ccccc34)ccc2O[C@H]1CN(C)S(=O)(=O)c1cn(C)cn1
inactive: cytotoxicity call [1] | cytotoxicity call [2] | growth inhibition call [3]

C[C@@H]1CN([C@@H](C)CO)C(=O)Cc2cc(NS(C)(=O)=O)ccc2O[C@@H]1CN(C)Cc1ccc(C(=O)Nc2ccccc2N)cc1
inactive: cytotoxicity call [1] | cytotoxicity call [2] | growth inhibition call [3]

CN1C(=O)c2cc(NS(=O)(=O)c3ccc(F)cc3)ccc2OC[C@@H]2O[C@H](CC(=O)NCC(F)(F)F)CC[C@@H]21
inactive: cytotoxicity call [1] | cytotoxicity call [2] | growth inhibition call [3]

C[C@H]1CN([C@@H](C)CO)C(=O)Cc2cc(NC(=O)CCC(F)(F)F)ccc2O[C@@H]1CN(C)S(=O)(=O)c1cccs1
inactive: cytotoxicity call [1] | cytotoxicity call [2] | growth inhibition call [3]

O=C1[C@@H]2[C@H](O)CS[C@@H]2C(=O)N1c1ccccc1
inactive: cytotoxicity call [1] | cytotoxicity call [2] | growth inhibition call [3]

C[C@@H]1CCCCO[C@H](CN(C)C(=O)Nc2ccc3c(c2)OCO3)[C@H](C)CN([C@H](C)CO)C(=O)c2cc(NC(=O)CCC(F)(F)F)ccc2O1
inactive: cytotoxicity call [1] | cytotoxicity call [2] | growth inhibition call [3]

C[C@@H]1CN([C@@H](C)CO)C(=O)CCCn2nncc2CO[C@@H]1CN(C)Cc1cccc2c1OCCCO2
inactive: cytotoxicity call [1] | cytotoxicity call [2] | growth inhibition call [3]

From the antibiotic and cytotoxicity screens of Wong et al. (2023)
